Reference: PMC4336329 (PLoS ONE, 2015)
Out of some 310,000 compounds screened, about 14,000 (4.5%) showed an effect of 50% or more. Effects have a minus sign here. This is one part of the list.

Each compound was assayed against human ether-à-go-go-related gene (hERG) potassium channel (human, UniProt Q12809) (assay: primary screen, population patch clamp on CHO cells stably expressing hERG).
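Also: peak tail current of the secondary pulse compared with the same well before compound.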

Chain of human ether-à-go-go-related gene (hERG) potassium channel (Q12809 whole entry, looked up): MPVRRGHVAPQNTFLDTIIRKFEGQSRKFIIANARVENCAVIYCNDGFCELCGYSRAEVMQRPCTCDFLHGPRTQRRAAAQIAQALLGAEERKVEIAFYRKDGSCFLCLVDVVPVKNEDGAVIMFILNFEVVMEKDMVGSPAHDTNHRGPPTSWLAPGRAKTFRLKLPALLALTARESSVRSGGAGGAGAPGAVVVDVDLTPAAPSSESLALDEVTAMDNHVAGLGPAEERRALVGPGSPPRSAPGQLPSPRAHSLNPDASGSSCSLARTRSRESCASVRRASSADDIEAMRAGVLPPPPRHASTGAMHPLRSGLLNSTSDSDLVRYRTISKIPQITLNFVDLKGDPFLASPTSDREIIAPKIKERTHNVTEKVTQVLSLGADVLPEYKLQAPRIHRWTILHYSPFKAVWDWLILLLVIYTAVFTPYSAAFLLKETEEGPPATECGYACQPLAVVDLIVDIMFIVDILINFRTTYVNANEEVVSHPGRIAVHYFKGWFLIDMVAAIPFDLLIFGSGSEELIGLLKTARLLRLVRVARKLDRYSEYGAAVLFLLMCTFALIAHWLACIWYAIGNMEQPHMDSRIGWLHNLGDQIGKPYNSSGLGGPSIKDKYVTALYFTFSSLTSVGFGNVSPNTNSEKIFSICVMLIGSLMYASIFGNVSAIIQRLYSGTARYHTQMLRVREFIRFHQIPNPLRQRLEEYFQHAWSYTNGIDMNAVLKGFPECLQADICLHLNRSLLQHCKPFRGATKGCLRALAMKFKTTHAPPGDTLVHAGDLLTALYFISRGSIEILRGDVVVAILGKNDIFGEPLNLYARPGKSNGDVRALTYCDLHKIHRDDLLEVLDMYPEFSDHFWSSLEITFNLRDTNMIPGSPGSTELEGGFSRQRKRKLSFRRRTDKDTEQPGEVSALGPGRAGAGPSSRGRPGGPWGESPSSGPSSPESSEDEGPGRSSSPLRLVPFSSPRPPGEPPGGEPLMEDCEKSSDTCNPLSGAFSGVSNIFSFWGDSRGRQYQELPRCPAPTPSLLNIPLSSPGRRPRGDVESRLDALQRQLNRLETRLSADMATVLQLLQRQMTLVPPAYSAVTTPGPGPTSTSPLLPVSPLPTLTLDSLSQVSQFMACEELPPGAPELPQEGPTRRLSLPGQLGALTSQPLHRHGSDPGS

Structure (SMILES) | hERG current change (%, negative = inhibition) at 10uM [%]
COC(=O)C1=C(c2ccc(F)cc2OCc2ccccc2)C[C@@H]2CC[C@H]1N2C(=O)NCc1ccc([N+](=O)[O-])cc1 | -10.9
O=C(CCl)Nc1ccccc1C(=O)c1ccccc1 | -3.69
O=C(Nc1nc(-c2ccc(F)c(F)c2)cs1)c1cnccn1 | 0.033
CC1(C)Cc2ccccc2C(N/N=C/c2ccc([N+](=O)[O-])cc2)=N1 | 16.9
O=C1OC(/C=C/c2ccc(Cl)cc2)=NC/1=C/c1ccco1 | 2.78
Cc1ccc(-c2c(C(=O)O)c3ccccc3[nH]c2=O)cc1 | 18.7
CN(CC(=O)Nc1ccc(F)cc1)C(=O)C1CCCC1 | -12.3
COc1ccc(Cc2nnc(NS(=O)(=O)c3ccc(NC(C)=O)cc3)s2)cc1 | 13.7
O=C(Nc1ccccc1N1CCOCC1)c1ccco1 | 0.742
COc1ccc(CSc2nnc(Cc3sc(-c4ccccc4)nc3-c3ccccc3)o2)cc1 | 8.16
Nc1nc(N)c(N=Nc2ccc(S(N)(=O)=O)cc2)c(=O)[nH]1 | 18.1
CC(/C=N\NC(=O)c1ccc(C)nc1)=C\c1ccccc1 | 12.1
O=C(NC(=S)Nc1ccccc1N1CCCC1)c1ccc([N+](=O)[O-])cc1 | 10.2
CC(Oc1ccc2c(-c3ccccc3)cc(=O)oc2c1)C(=O)NCCN1CCOCC1 (stereo not shown) | -2.98
O=C(CC12CC3CC(CC(C3)C1)C2)NCC(=O)N1CCc2ccccc2C1 | -8.36
CCO[C@@H]1OC(C(=O)N2CCN(Cc3ccccc3)CC2)=C[C@H](C2CC2)[C@H]1CCCO | -23.8
Cc1[nH]nc(SCC(=O)NCc2ccc(Cl)cc2)c1[N+](=O)[O-] | 6.48
CCOC(=O)c1ccc(N2C(=O)CC(Nc3ccc(O)cc3)C2=O)cc1 (stereo not shown) | 1.63
COc1ccc(C2C(C(=O)N3CCN(c4ccccn4)CC3)CCC(=O)N2c2cc(OC)c(OC)c(OC)c2)cc1 (stereo not shown) | 9.77
CCOC(=O)c1sc(N2C(=O)C(O)=C(C(=O)c3ccc(C)o3)C2c2cccc([N+](=O)[O-])c2)nc1C (stereo not shown) | 17.8
COc1ccc(N2CCN(C(=O)c3ccc4c(c3)[nH]c(=S)n3c5ccccc5nc43)CC2)cc1 | 16.7
CC(C)(C)c1ccc(OCC(=O)N/N=C/c2ccc(N3CCOCC3)cc2)cc1 | -10
